Measured values reported in PubChem BioAssay AID504339 (National Center for Advancing Translational Sciences (NCATS), 2011).
The campaign covered roughly 390,000 compounds. About 17,000 (4.4%) were called active. The shares of active, inactive and inconclusive entries below differ from those in the screen. Calls follow the shape of the dose curve; as a rule, active = well fitted inhibition curve with a large enough effect; inconclusive = small, poorly fitted or top-dose-only effect; inactive = no such curve, though single readings can be large or run the other way. Potencies beside an inconclusive call are fits to weak or partial responses and may not hold up.

molecular target: Lysine-specific demethylase 4A (Homo sapiens) (UniProt O75164); assay: qHTS Assay for Inhibitors of JMJD2A-Tudor Domain; conditions: AlphaScreen JMJD2A-Tudor / H3K4me3 peptide binding; activity change, negative = inhibition: at 114 µM (top of the series); also: nearly all actives have a fitted effect of over 50% in size
% is scaled to controls: 0 for no effect and ±100 for the full control effect; potency is read from the fitted curve at half-maximal effect; tags tell the direction and shape of the fitted curve.

Sequence of UniProt O75164 (O75164 whole entry, looked up, the tested form may be a part): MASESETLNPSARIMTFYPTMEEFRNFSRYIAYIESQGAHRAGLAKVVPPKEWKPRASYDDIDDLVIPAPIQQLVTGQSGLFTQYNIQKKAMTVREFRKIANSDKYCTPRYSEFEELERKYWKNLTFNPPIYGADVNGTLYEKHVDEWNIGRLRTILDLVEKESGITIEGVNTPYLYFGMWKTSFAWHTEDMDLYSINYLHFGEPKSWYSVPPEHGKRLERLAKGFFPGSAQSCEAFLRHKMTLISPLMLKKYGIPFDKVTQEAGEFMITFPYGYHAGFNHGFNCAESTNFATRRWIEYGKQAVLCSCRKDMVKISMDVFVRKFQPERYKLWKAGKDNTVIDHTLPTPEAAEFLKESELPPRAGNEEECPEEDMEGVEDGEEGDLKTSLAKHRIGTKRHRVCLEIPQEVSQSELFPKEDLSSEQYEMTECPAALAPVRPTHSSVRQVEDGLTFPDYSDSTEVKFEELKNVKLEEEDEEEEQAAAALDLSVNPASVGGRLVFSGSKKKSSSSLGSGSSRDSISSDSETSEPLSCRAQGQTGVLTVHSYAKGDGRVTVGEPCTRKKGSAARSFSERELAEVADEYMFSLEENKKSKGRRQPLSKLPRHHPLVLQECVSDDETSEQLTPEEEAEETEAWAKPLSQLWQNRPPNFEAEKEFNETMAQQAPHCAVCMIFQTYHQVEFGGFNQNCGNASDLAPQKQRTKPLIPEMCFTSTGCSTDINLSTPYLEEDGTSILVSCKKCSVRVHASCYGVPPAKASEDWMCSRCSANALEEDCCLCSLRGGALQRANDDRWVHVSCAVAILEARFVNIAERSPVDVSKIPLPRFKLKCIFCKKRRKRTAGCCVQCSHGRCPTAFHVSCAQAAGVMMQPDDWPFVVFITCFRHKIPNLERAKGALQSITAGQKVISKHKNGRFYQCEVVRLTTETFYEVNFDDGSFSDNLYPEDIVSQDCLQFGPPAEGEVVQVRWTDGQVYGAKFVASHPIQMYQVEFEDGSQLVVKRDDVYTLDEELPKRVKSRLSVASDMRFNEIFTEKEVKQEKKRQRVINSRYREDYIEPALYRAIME

Potency, active:
Cc1ccc(/C(O)=C2/C(=O)C(=O)N(CCN3CCOCC3)C2c2cccnc2)cc1 (stereo not drawn) 89.1 µM, O=C1c2ccccc2C(=O)N1c1cccc2ncccc12 89.1 µM, COC(Cn1c(-c2cccc(S(=O)(=O)N(C)C)c2)n[nH]c1=S)OC 7.94 µM, COc1ccc(/C=C/C(=O)Oc2cc(C)[nH]c(=O)c2[N+](=O)[O-])cc1OC 31.6 µM, O=C(CSc1cccc2cccnc12)OCC(=O)c1ccccc1 35.5 µM, CC1=NN(c2ccccc2)C(=O)C1/C=C1\NC(=S)NC1=O (stereo not drawn) 56.2 µM, NS(=O)(=O)c1ccc(NC(=O)CN2CCN(S(=O)(=O)c3ccc(F)cc3)CC2)cc1 14.1 µM, O=C(CCCN1C(=O)/C(=C/c2ccccc2Cl)SC1=S)Nc1ccccn1 17.8 µM, C1CCN=C(Nc2nn[nH]n2)CC1 7.94 µM, O=C(CN1CCCC1)Nc1ccc(F)c(Cl)c1 22.4 µM, Cc1cc(C(=S)N2CCOCC2)c(C)n1-c1ccc(Cl)cc1 28.2 µM, Cc1csc(NC(=O)c2cnccn2)n1 7.94 µM, COc1cc(C2/C(=C(\O)c3ccc4c(c3)CC(C)O4)C(=O)C(=O)N2c2nnc(C)s2)cc(OC)c1OC (stereo not drawn) 44.7 µM, CCN(CC)c1ccc(N=C2C(=O)Nc3ccccc32)cc1 15.8 µM

Potency, inconclusive:
COc1ccc(N2CCN(CCS(=O)(=O)c3cc(Cl)ccc3Cl)CC2)cc1 12.6 µM [inhibitor, partial curve], COc1ccccc1NS(=O)(=O)c1cc(NC(=S)Nc2cc(C)cc(C)c2)ccc1Cl 39.8 µM [inhibitor, partial curve], O=C(NC(=S)N(CCCCO)C1CCCCC1)c1sc2ccccc2c1Cl 89.1 µM [inhibitor, partial curve], COCCNS(=O)(=O)c1ccc2c(c1)Cc1cc(S(=O)(=O)NCCOC)ccc1-2 20 µM [inhibitor, partial curve], Cc1sc2nc(SCC(=O)Nc3c(C)n(C)n(-c4ccccc4)c3=O)n(C)c(=O)c2c1C 50.1 µM [inhibitor, partial curve], Cc1c(C(=O)NC(=S)Nc2ccccc2N2CCCC2)cccc1[N+](=O)[O-] 39.8 µM [inhibitor, single point], CCOC1(OCC)N=C(N)C2(C#N)C(c3ccc(NC(C)=O)cc3)C12C#N (stereo not drawn) 17.8 µM [inhibitor, partial curve, poor fit], CN(C)CCNCc1ccccc1OC1CCCC1 50.1 µM [inhibitor, partial curve], Cc1csc(NC(=O)c2nc3nccc(C)n3n2)n1 3.16 µM [inhibitor, single point], COCCn1c(SCC(=O)NC(=O)NCc2ccccc2)nc2ccccc21 70.8 µM [inhibitor, partial curve], CCOC(=O)c1ccc(NC(=S)NNC(=O)c2cc(-c3cccnc3)nc3ccccc23)cc1 39.8 µM [inhibitor, partial curve], Nc1nc(Nc2cccc(Cl)c2)sc1C(=O)c1ccc(F)cc1 31.6 µM [inhibitor, full curve, poor fit], C/C(=N\NC(=S)Nc1ccc(C)c(C)c1)c1ccc(N2CCOCC2)cc1 35.5 µM [inhibitor, partial curve], COc1ccc(N2CCN(C3CCCN(Cc4ccc(F)c(F)c4)C3)CC2)cc1 (stereo not drawn) 56.2 µM [inhibitor, partial curve], COc1ccc(N(Cc2cc3ccc(C)cc3[nH]c2=O)S(=O)(=O)c2ccccc2)cc1 70.8 µM [inhibitor, partial curve, poor fit], COc1ccc(C2CC(=O)C3=C(C2)Nc2ccccc2NC3c2coc3ccccc3c2=O)cc1OC (stereo not drawn) 79.4 µM [inhibitor, partial curve], Cc1cc2nnc(SC3CCCCN(C(=O)c4ccc(F)cc4)C3=O)n2c2ccccc12 (stereo not drawn) 31.6 µM [inhibitor, single point], COc1cccc(NC(=S)N(CCc2c(C)[nH]c3ccccc23)Cc2cccs2)c1 14.1 µM [inhibitor, full curve], COCCCn1c(SCc2cccc(OC)c2)nc2cc(OC)c(OC)cc2c1=N 56.2 µM [inhibitor, partial curve, poor fit], COc1ccc2[nH]c3c4c(ccc3c2c1)C(=O)C=CC4=O 44.7 µM [inhibitor, partial curve], COc1ccc(C(=O)NC(=S)Nc2ccc(Cc3ccncc3)cc2)cc1 3.16 µM [inhibitor, single point], CCn1c(CCNC(=O)c2cccs2)n[nH]c1=S 39.8 µM [inhibitor, single point], CC(C)CNC(=S)NC(=O)c1ccc([N+](=O)[O-])cc1 79.4 µM [inhibitor, single point], COc1ccc(OC)c(C(C)NC(=S)NC2CCCCC2)c1 (stereo not drawn) 39.8 µM [inhibitor, partial curve], COc1ccc2[nH]c3c(c2c1)CCN1C(=O)C(CC(=O)NCC24CC5CC(CC(C5)C2)C4)C[C@H](C(=O)N(C(C)C)C(C)C)[C@@]31C (stereo partly drawn) 50.1 µM [inhibitor, partial curve], CN1CCN(Cc2nc(N)nc(Nc3ccc4c(c3)OCCO4)n2)CC1 35.5 µM [inhibitor, full curve], CCN1CCN(c2ncc3c(n2)CCN(Cc2cccc(F)c2F)C3)CC1 79.4 µM [inhibitor, single point], CC(OC(=O)c1ccc(S(=O)(=O)NCc2ccco2)cc1)C(=O)Nc1ccc(Cl)cn1 (stereo not drawn) 56.2 µM [inhibitor, partial curve], CC1CCc2c(sc3nc(CN4CCOCC4)nc(Sc4ccccc4)c23)C1 (stereo not drawn) 63.1 µM [inhibitor, partial curve], COc1cccc(N2CCN(C(=O)c3oc4ccccc4c3NC(=O)Cc3ccc(OC)c(OC)c3)CC2)c1 100 µM [inhibitor, partial curve, poor fit], COc1ccccc1Nc1nc(N)nc(N)c1S(=O)(=O)c1ccccc1 56.2 µM [inhibitor, partial curve], CN(C)CCCN(C(=O)c1cc(-c2cccs2)nc2ccccc12)c1nc2ccc(F)cc2s1 14.1 µM [inhibitor, partial curve], CSc1ccc(/C=C/c2nc3ccccc3n2S(=O)(=O)c2ccc(Br)cc2)cc1 89.1 µM [inhibitor, partial curve], CCOC(=O)C1=C(C)n2c(s/c(=C/c3cccc([N+](=O)[O-])c3)c2=O)=NC1c1ccc(O)c(OC)c1 (stereo not drawn) 8.91 µM [inhibitor, full curve], CCCCCNC(=O)C(=O)C1C(=O)Nc2ccccc21 (stereo not drawn) 100 µM [inhibitor, single point], COc1ccc(-c2cc(C(F)(F)F)n3ncc(-c4ccccc4)c3n2)cc1 35.5 µM [inhibitor, partial curve], CN(c1ccccc1)S(=O)(=O)c1ccc(C(=O)NCc2ccco2)cc1 79.4 µM [inhibitor, partial curve], N#C/C(=N\Nc1cc(Cl)cc(Cl)c1)c1nnc2n1CCCCC2 50.1 µM [inhibitor, partial curve], COc1cccc(-n2c(CN3CCN(c4ccccc4)CC3)nc3ccc([N+](=O)[O-])cc3c2=O)c1 28.2 µM [inhibitor, full curve, poor fit], Cc1cccc(Nc2cc(C)nc(-n3nc(C)cc3C)n2)c1 7.08 µM [inhibitor, full curve, poor fit]

Activity change, negative = inhibition, inactive:
CN1C2CCC1CC(NC(=O)c1ccc([N+](=O)[O-])cc1)C2 (stereo not drawn) -6.06%, CC(=O)c1ccc(OCc2cc(C(=O)N(C)CCN3CCOCC3)no2)cc1 -9.66%, COc1cc(OC)c(NC(=O)CC(C)S(=O)(=O)c2ccc3c(c2)NC(=O)CO3)cc1Cl (stereo not drawn) -17.2%, CCCC(=O)Nc1nc(-c2ccc3c(c2)CCN3S(C)(=O)=O)cs1 -8.93%, CN1CCC(N(C)S(=O)(=O)c2ccc(NC(=O)COc3ccc(Cl)cc3)cc2)CC1 -18.9%, O=C(NC(c1ccco1)c1cc(Cl)c2cccnc2c1O)c1ccccc1 (stereo not drawn) -23.4%, O=C1c2ccccc2C(=O)N1Cc1ccco1 -12.6%, CCOc1ccccc1C=Nc1ccccc1C(=O)Nc1ccccc1 -2.86%, Cc1ccc(-c2c3c(=O)n(C)c(=O)n(C)c3c3cnc4ccccc4n23)cc1 -2.75%, COc1cc(C2C3=C(CC(C)(C)CC3=O)N(C)C3=C2C(=O)CC(C)(C)C3)cc(Br)c1O -9.63%, CSc1ccc(CNC(=O)c2sc3ncnc(N(C)C4CCCCC4)c3c2C)cc1 -23.7%, Cc1cccc(C(=O)N2c3ncnn3C3(CCCCC3)[C@@H]3CCCC[C@@H]32)c1 -18.2%, CC(Oc1ccc(Cl)cc1Cl)C(=O)NC(=S)N1CCc2ccccc21 (stereo not drawn) -33.7%, CCN(C(=O)COC(=O)/C=C/c1ccc2c(c1)OCO2)c1c(N)n(Cc2ccccc2)c(=O)[nH]c1=O -11.7%
